Sequences with one replicate were seen in a single cluster, so their values are uncertain.
System: ATP
Assay: switch fluorescence ratio, 500 uM ATP over buffer (Cy3 cluster intensity, sum of 5 cycles each) (fold (ratio)); higher = stronger signal-on switching upon ATP binding; sequences stand for … in TCGTCGGCAGCGTCAGATGTGTATAAGAGACAGTTTTTTTTTTTTTTTTTTTTTTTTT…TC
Conditions: aptamer strand: ATP DNA aptamer (quencher-CACCTGGGGGAGTATTGCGGAGGAAGG + anchor), 100 nM annealed; ATP concentration: 500 uM; one replicate
Summary of the method: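 Cy3-labelled switching-strand clusters on a modified Illumina MiSeq flow-cell were annealed to 100 nM quencher-labelled ATP aptamer, imaged in selection buffer, then imaged after 15 min with 500 uM ATP at 22 °C. Five buffer/ATP cycles ran, with NaOH stripping and re-annealing between them. The fluorescence ratio is summed target-cycle over summed buffer-cycle Cy3 intensity per cluster, averaged per switch-domain sequence. Clusters outside 100-1000 RFU were excluded.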
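Further: ATP exposure 15 min at 22 °C before imaging.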

Sequence	switch fluorescence ratio
GTTATACGGC	0.975
AAATCGTGAT	1.01
TTCTTGCCTT	1
TATAGGCCTG	1.01
GTCACAAGGT	1.03
CCAGTTAACC	0.996
CATACGCAGA	3.08
GTGACTTGGA	0.99
GCCGTAGACT	1
ACGCTCCCCA	1.95
AGGTTCTTAG	0.984
GACCTTTTAG	1.03
TTTTACTTCC	1.51
GCATAGAGAT	0.965
GTTGAGATTT	0.937
GGGTACTCTG	1.03
TCCACTAAGA	1.07
AGGTTCGGTG	0.978
TCAGCGTCG	1.02
ATTTGTTGAG	0.946
ACGCAGATTG	1.06
TTGGGTAGAG	1.02
GCGATATCTC	3.45
TCTTATGGGT	0.944
ATGATAAACA	1.01
TACACGCTTT	0.992

Sequence	switch fluorescence ratio
TTCATCCAGG	2.21
TATAGGCACA	1.05
TAAATGCGAA	0.97
GTGAAAAGGA	0.993
TCCATTGACG	1.1
GCTAGTGGTT	0.952
TTATCCTCTC	1.03
CGTTGACGTA	0.985
TCTGGGCTGG	1.02
TGCCCCCACG	0.998
TCGCCGATGT	1.05
TAAAAGAGTG	1.03
ATCCCGCACT	2.16
TTGTATCATT	0.963
ACATGCCCGT	1
TTGCAGTCGG	0.998
GCGACCAAGG	1.01
GATCTTTACG	0.957
CTTGTTTGTT	1.03
ATATATATTG	0.995
GATTGGTAGT	0.96
TGATAAATGG	0.977
TAATATAATA	0.976
CCACGTCGCT	1.01
CTTAACTCCC	1.6
TAATAGATGT	1.02

Sequence	switch fluorescence ratio
GAGTATCGCG	0.962
TTTCCATGTT	1.03
AGGATGCCCA	0.991
GGGTGATCAC	1.01
CACTTATACA	1.12
GAGTCAACCT	1.41
GCGTAACCTT	1.44
AAGTCACTCA	1.11
AATTCTGCCT	1.01
TATCATACGA	0.992
CGCAGGAGAT	1.01
GGACTGTGGA	0.983
TTAGAATGG	0.974
GGATTTTC	1.03
TGGGCTTTCA	1.02
GGGCTGCGTG	0.949
GGATATACGA	1.05
GTCTAATGTT	1.01
TAAACACCAG	1.02
ACCTGTAAAA	0.952
CGCGGGCGGT	1.03
TGACCTCGTT	1.03
TTTAAACCCA	0.985
GGTTATGGGT	0.986
TCAAATGGGG	1.02
CGGGCTGCAG	0.947

Sequence	switch fluorescence ratio
GTCCTGAACG	1.01
TTTCATTATG	1.02
CCTGACTGTA	1.26
TCGCTACGGC	1.09
TTAAGCTCCT	0.997
CCGGATAATA	1.13
AAAGGCCATT	0.97
CGCGGTCTCG	1.09
AGGTAGCGGA	0.992
GTCTGGGGAC	0.976
GGCTGAAGAC	1.02
ATTTTGGTGT	1.03
TCCGAACAGT	1.12
AGCCGCTAAT	1.28
CGAATTTCTA	1.01
TTTCGAAGTT	1.04
TGGCTACTAA	1.02
TTCAGAAAAT	0.968
ACGAAGTTGG	1
TTGAGATAGC	1.01
AGCTGTGCGG	0.94
CCCGGGTCTA	1.05
TCGCTCTCTG	0.991
ATCGCTTAGA	1
AGCGCGATCT	0.993
TCAACGTCAA	2.19

Sequence	switch fluorescence ratio
CCTATCAGGG	1.03
ATAGTTGAAT	1.06
ACAAGAAACG	1.08
ATGGATTGTC	0.886
GTTACTCTTA	1.05
CATACGTAAT	6.65
GTTTTCGAGT	1.02
GGGAACTGGT	1.01
CGGACGCTGA	1.07
TGCGGTAGGC	1.02
CCGCGGTGCG	1.56
CAGTGCCTGC	0.945
GATCGAAAGC	1.04
AAGTTTTCTG	1.06
GGCCGCGGGG	1
ATACTGGAAT	0.996
GTAAAATTGT	0.992
TTTAGACAG	1
TGTATGAAAT	0.999
ATATGGCTT	1.04
GGTTAATAGT	1.02
ACTTCCCTCT	1.16
AGTCCCTAGC	1.01
ATATGGGCAT	1.01
GATATGCAGG	1.04
GGTCGTATGG	0.922

Sequence	switch fluorescence ratio
GTCTAAGCC	0.937
TTCTCGAACA	1.05
GGTCGCGCGT	1.01
TCTTATAGAG	0.968
CTACCTCTGC	2.42
AAATGTTCGG	0.985
CAAGACCGTT	0.968
TCCTGGGGGT	1.07
TTTCCTTATT	1.09
CGGAGAGTGG	1.01
CTTAAAGGGC	1.07
TCTTACCGGC	0.935
GCTTTGAGGG	0.988
TGTGAAATTG	0.998
ATCGGATCTG	1.03
TGGATTCACT	0.971
ATGGGAAGCC	1.02
TTCTTATTGG	0.981
CGTAGGCAGG	1.04
GATATTTGGG	0.986
AATGGCAAAA	0.996
CTACTCGGCT	1.02
GGTAATTCAG	0.991
